# ± gives the uncertainty stated by the source. Shown are siRNA guide strands that differ only in the seed, positions 2 to 7.
# Tests used:
# M565 = assay: cell viability relative to lipid-only control; higher = less toxic; conditions: concentration: 10 nM; 96 h; Mus musculus
# Method: (§1)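 Arrayed screen of 4096 siRNA duplexes, each carrying one of all possible 6mer seeds at guide-strand positions 2-7 in a fixed neutral 19mer scaffold (constant flanks: U at position 1, then ACAUGUAAACCA, plus a 3' AA overhang). The passenger strand is 2'-O-methylated at positions 1-2 so only the guide strand loads into RISC. Duplexes were reverse-transfected at 10 nM with RNAiMAX in triplicate in 384-well plates; viability was read by CellTiter-Glo ATP content 96 h after transfection. Values are % viability normalised to lipid-only wells (HeyA8, H460, M565) or to siNT1 (3LL).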
# H460 = assay: as above; conditions: concentration: 10 nM; 96 h; Homo sapiens
# Method: as §1
# HeyA8 = assay: as above; conditions: concentration: 10 nM; 96 h; Homo sapiens
# Method: as §1
# 3LL = assay: cell viability relative to siNT1 control; HeyA8 human ovarian and H460 human lung cancer; M565 mouse liver and 3LL mouse lung cancer; siNT1 is a non-toxic control siRNA; higher = less toxic; conditions: concentration: 10 nM; 96 h; Mus musculus
# 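Wherever cell viability relative to lipid-only control is given: reverse lipid transfection in 384-well plates, in triplicate, of duplexes on a non-toxic 19mer backbone with passenger strand 2′-O-methylated at positions 1 and 2, luminescence viability read-out.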
# 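Wherever cell viability relative to siNT1 control is given: Luminescence-based viability of cells reverse transfected in 384-well plates with lipid-complexed siRNAs built on a non-toxic 19mer backbone whose passenger strand carries 2′-O-methyl groups at positions 1 and 2, triplicates.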
Sequence,cell viability (M565),cell viability (H460),cell viability (HeyA8),cell viability (3LL)
UCAACACACAUGUAAACCAAA,74.9 ± 6.5%,53.3 ± 2.9%,75.7 ± 5.8%,85.7 ± 15%
UAUUUCCACAUGUAAACCAAA,34.5 ± 3.8%,51.5 ± 1.7%,42.4 ± 5%,10.4 ± 1.6%
UUCCAACACAUGUAAACCAAA,70.1 ± 6%,55.9 ± 1.1%,36.7 ± 2.4%,93 ± 22%
UGACGUUACAUGUAAACCAAA,30.1 ± 0.83%,83.91 ± 0.59%,92.5 ± 3.6%,65.3 ± 6.4%
UUCCCUUACAUGUAAACCAAA,96.8 ± 10%,75.8 ± 5%,81.3 ± 7.9%,107 ± 14%
UAGUGACACAUGUAAACCAAA,42.7 ± 11%,28.6 ± 3.9%,41.5 ± 5.2%,33.7 ± 3.9%
UCAGGCUACAUGUAAACCAAA,19.2 ± 6.3%,50.7 ± 7.6%,14.2 ± 1.2%,40.4 ± 9.4%
UCCGGAUACAUGUAAACCAAA,70.4 ± 13%,68.4 ± 16%,64.6 ± 7%,87.9 ± 26%
UGUGUAGACAUGUAAACCAAA,18.6 ± 9.8%,55.3 ± 7.6%,57.5 ± 9.8%,30.7 ± 11%
UACACACACAUGUAAACCAAA,19.6 ± 7.8%,61.9 ± 3.6%,45.4 ± 6.1%,53.6 ± 8.3%
UGGUCAUACAUGUAAACCAAA,77.3 ± 11%,39.1 ± 2%,30.4 ± 2.4%,93.3 ± 6.3%
UCGAGGUACAUGUAAACCAAA,29.4 ± 4.1%,75.6 ± 15%,67.9 ± 0.8%,90.9 ± 25%
UACAGAGACAUGUAAACCAAA,59.1 ± 12%,64.8 ± 4.4%,78.1 ± 14%,82.1 ± 15%
UUUCGACACAUGUAAACCAAA,67.8 ± 5.4%,70.3 ± 7.3%,86.4 ± 5.8%,90.3 ± 7.6%
UGGUGCGACAUGUAAACCAAA,23.9 ± 2%,17.4 ± 2.3%,8.24 ± 1%,34.2 ± 5.3%
UUUCCACACAUGUAAACCAAA,65.8 ± 8.3%,69.5 ± 9.2%,73.9 ± 6.4%,94.67 ± 0.89%
UGGGCGUACAUGUAAACCAAA,27.3 ± 1.1%,17.5 ± 1.6%,2.36 ± 7.2%,83.1 ± 4%
UGAGUAGACAUGUAAACCAAA,14 ± 3.6%,70.8 ± 8.3%,22.4 ± 1.2%,21.4 ± 4%
UACACAUACAUGUAAACCAAA,28.4 ± 6.9%,82.4 ± 5.7%,61.7 ± 10%,92 ± 13%

Sequence,cell viability (M565),cell viability (H460),cell viability (HeyA8),cell viability (3LL)
UGGAAGCACAUGUAAACCAAA,8.72 ± 5.5%,44 ± 7.4%,24.5 ± 3%,16.5 ± 1.8%
UUCACGAACAUGUAAACCAAA,88.2 ± 6.9%,50.6 ± 1.8%,86.5 ± 14%,107 ± 17%
UAGGAGUACAUGUAAACCAAA,14 ± 2.5%,25.7 ± 5.8%,15.2 ± 0.34%,61.5 ± 11%
UACUCAUACAUGUAAACCAAA,36.8 ± 5.8%,72.1 ± 8.4%,61.9 ± 6.5%,83.2 ± 7.5%
UACUGUCACAUGUAAACCAAA,57.7 ± 14%,71.8 ± 26%,78.1 ± 9.7%,74.3 ± 5.2%
UAUCACGACAUGUAAACCAAA,118 ± 12%,36.7 ± 3.4%,92.5 ± 5.1%,114 ± 15%
UUACGAAACAUGUAAACCAAA,103 ± 14%,97.9 ± 16%,98.9 ± 5.1%,105 ± 15%
UAACUUCACAUGUAAACCAAA,86.6 ± 8.9%,54.7 ± 4.2%,34.4 ± 4.2%,51.1 ± 7.5%
UGCAGUCACAUGUAAACCAAA,8.13 ± 1.1%,38.5 ± 2.5%,29.7 ± 3%,4.85 ± 1.2%
UAAUCCGACAUGUAAACCAAA,81.4 ± 5.2%,69 ± 8.7%,90.3 ± 8.1%,99.6 ± 4.7%
UGUCUCUACAUGUAAACCAAA,10.5 ± 2.2%,34.2 ± 8.4%,5.97 ± 0.47%,9.28 ± 1.8%
UCUCGUUACAUGUAAACCAAA,65.6 ± 6.5%,57.3 ± 5.9%,87.8 ± 8.2%,94.4 ± 14%
UAUGGUCACAUGUAAACCAAA,83.6 ± 23%,55.1 ± 9.6%,67.8 ± 5.8%,97.1 ± 3.4%
UCAGUUAACAUGUAAACCAAA,67.6 ± 4%,66.3 ± 1.2%,93.8 ± 14%,96.8 ± 20%
UCAACUAACAUGUAAACCAAA,68.8 ± 3.9%,68 ± 11%,77.5 ± 6.6%,93.1 ± 16%
UCGAACGACAUGUAAACCAAA,62.7 ± 5%,79.6 ± 18%,83.7 ± 5.2%,90.8 ± 16%
UCCCGUUACAUGUAAACCAAA,46.3 ± 11%,95.2 ± 11%,80.7 ± 6.8%,100 ± 23%
UUCGAGAACAUGUAAACCAAA,89.6 ± 11%,75.9 ± 6.2%,79.3 ± 4.9%,97 ± 19%
UAGGUAGACAUGUAAACCAAA,32.7 ± 1.2%,62.9 ± 17%,68.5 ± 3.5%,71.3 ± 7%

Sequence,cell viability (M565),cell viability (H460),cell viability (HeyA8),cell viability (3LL)
UUUAACAACAUGUAAACCAAA,93.6 ± 4.9%,85.4 ± 4.1%,99.7 ± 7.3%,102 ± 9.5%
UUGAGAAACAUGUAAACCAAA,88.3 ± 14%,65.1 ± 6.1%,85.4 ± 10%,85.8 ± 7.3%
UCGAGCAACAUGUAAACCAAA,70 ± 9.2%,66.4 ± 14%,81 ± 6.4%,94 ± 13%
UAAAACGACAUGUAAACCAAA,99 ± 4.7%,74.2 ± 8.1%,101 ± 10%,108 ± 7.4%
UUUCUUAACAUGUAAACCAAA,102 ± 13%,71.5 ± 9.4%,97.4 ± 3.6%,112 ± 4.4%
UCCACCUACAUGUAAACCAAA,42.3 ± 17%,46 ± 8.2%,49.6 ± 9.6%,105 ± 13%
UGCCACUACAUGUAAACCAAA,15.5 ± 10%,32.7 ± 5.9%,46.1 ± 3.3%,47.5 ± 3.6%
UCGACCAACAUGUAAACCAAA,78.3 ± 23%,84.4 ± 26%,87.9 ± 6.5%,96.8 ± 25%
UGGAUGAACAUGUAAACCAAA,16.5 ± 2.8%,53.8 ± 2.5%,43.5 ± 6.5%,96.9 ± 11%
UUAGCCGACAUGUAAACCAAA,72.5 ± 4%,65.9 ± 1.2%,69.5 ± 4%,54.8 ± 7.2%
UCCCGACACAUGUAAACCAAA,59 ± 16%,72.3 ± 6.1%,68.3 ± 7.8%,56.5 ± 12%
UCAAUUCACAUGUAAACCAAA,59.8 ± 8.9%,60.7 ± 6.9%,63 ± 4.4%,86.7 ± 16%
UCGGCAAACAUGUAAACCAAA,66.8 ± 6.6%,63.3 ± 5.5%,74.5 ± 6.3%,92.6 ± 4.8%
UAGUCGGACAUGUAAACCAAA,41.9 ± 1.2%,70.4 ± 11%,71.7 ± 2.4%,39.7 ± 7.9%
UAGUGCUACAUGUAAACCAAA,116 ± 22%,76.2 ± 8.3%,70 ± 3.8%,86 ± 5.5%
UGCAACGACAUGUAAACCAAA,43 ± 1.2%,65.4 ± 6%,63 ± 5.1%,90.8 ± 20%
UCUGUGGACAUGUAAACCAAA,26.2 ± 4.8%,37.2 ± 2.5%,62.1 ± 5.3%,82 ± 12%
UGCACUGACAUGUAAACCAAA,30.7 ± 3.5%,57.9 ± 7.5%,69.1 ± 3.6%,69.9 ± 17%
UCGGAUAACAUGUAAACCAAA,70.6 ± 16%,67.4 ± 1.1%,87.8 ± 14%,90.5 ± 18%

# Source: the supplement of paper PMC6206098
